# Laboratory results as given in PubChem BioAssay AID602293 (National Center for Advancing Translational Sciences (NCATS), 2012).
# Screen size: about 1,300 compounds; about 30 (2%) were called active. Inconclusive results (about 10%) are left out. Calls come from the whole dose curve; as a rule, active = well fitted inhibition curve with a large enough effect; inconclusive = small, poorly fitted or top-dose-only effect; inactive = flat fitted curve, though single readings scatter. The list shows a part of the results.
# Experiment: qHTS for antagonists of the Thyroid Stimulation Hormone Receptor: Hit Validation in HTRF Activity in a Luteinizing Hormone Receptor Cell Line
# Settings: LHR-expressing cell line, cAMP HTRF, antagonist mode; series mostly up to 58 µM; activity change, negative = inhibition: at the top concentration
# Outline: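 Counter-screen on LH receptor–transfected HEK 293 cells: 30 min compound exposure at room temperature in medium containing 100 uM RO 20-1724 phosphodiesterase inhibitor. Cellular cAMP read by competitive HTRF after lysis with d2-cAMP and anti-cAMP antibody (330 nm excitation; 615/660 nm emission).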
# % is set by controls: 0 for no effect and ±100 for the full control effect; potency is the fitted concentration of half-maximal effect.
Structure (SMILES),"activity change, negative = inhibition",Potency
CCc1ccc(N/C(SCc2cccc(F)c2)=C(/C#N)C(=O)NCc2ccco2)cc1,inactive: 0.052%,–
O=C(OCn1ncc(Cl)c(Cl)c1=O)c1cccc(C(F)(F)F)c1,inactive: -0.844%,–
O=C(COc1ccc(Cl)cc1Cl)Nc1ccc(C(=O)Nc2ccccc2C(=O)O)cc1,inactive: -0.211%,–
CCc1cc(CNC(=O)CC2C(=O)NCCN2Cc2ccc(-c3ccccc3)cc2)on1 (stereo not given),inactive: -0.039%,–
Cc1n[nH]c(C)c1S(=O)(=O)N1CCCC(C(=O)N2CCN(c3ccc(Cl)cc3)CC2)C1 (stereo not given),inactive: -2.41%,–
Cc1ccc(CN2C(=O)c3ccccc3Sc3ccc(C(=O)NCCN4CCOCC4)cc32)cc1,inactive: -0.653%,–
COc1ccc(-c2csc(/C(C#N)=C\c3ccc(O)c([N+](=O)[O-])c3)n2)cc1OC,inactive: -2.64%,–
Cc1cc(OCC(=O)Nc2cccc(S(=O)(=O)N3CCCC3)c2)ccc1Cl,inactive: -2.78%,–
Cc1cc2c(NCCc3ccccc3)ncnc2s1,inactive: 0.102%,–
CSc1cccc(NC(=O)CN2C(=O)COc3ccc(S(=O)(=O)N4CCOCC4)cc32)c1,inactive: 1.29%,–
O=C1NC(=O)/C(=C/c2ccccc2Oc2ccc(Cl)cc2)S1,inactive: 2.88%,–
Cc1csc2ncnc(N3CCN(S(=O)(=O)c4cccc(C(F)(F)F)c4)CC3)c12,inactive: -2.99%,–
Cc1ccc(O)c(N=Cc2cc(Cc3ccccc3)cc([N+](=O)[O-])c2O)c1,inactive: 0.607%,–
CCN(CC)S(=O)(=O)c1cccc(NC(=O)CNc2cccc(S(=O)(=O)N3CCOCC3)c2)c1,inactive: -1.44%,–
O=C(COc1cccc2ccccc12)Nc1ccc(Cl)cc1C(=O)O,inactive: 2.46%,–
C[C@@H](NC(=O)[C@@H]1Cc2ccccc2CN1)C(=O)NC1CCCCC1,inactive: 3.6%,–
CSc1cccc(NC(=O)C2CCCN(S(=O)(=O)c3ccc(F)cc3)C2)c1 (stereo not given),inactive: -7.29%,–
Cc1nc2ccccc2n1CCOc1ccccc1,inactive: 2.28%,–
Cc1ccc(CNC(=O)CCNC(=O)N2CCn3c2nc2ccccc23)cc1,inactive: 0.978%,–
O=C1c2cccnc2C(=O)N1Cc1ccc(S(=O)(=O)N2CCN(c3ccc(Cl)cc3)CC2)cc1,inactive: -0.125%,–
CC(=O)N1c2ccc(S(=O)(=O)NCCC(=O)Nc3cccc(Cl)c3)cc2CC1C (stereo not given),inactive: 3.16%,–
CC1CCN(c2ccccc2NC(=O)c2cc([N+](=O)[O-])ccc2N2CCOCC2)CC1,inactive: -3.69%,–
N#Cc1c(SCc2c(Cl)cccc2Cl)nc(N)[nH]c1=S,inactive: 0.676%,–
COc1ccc(CCNC(=O)c2ccc(Cl)c(S(=O)(=O)N3CCCCCC3)c2)cc1,inactive: -4.42%,–
CSc1nc(-c2ccc(Cl)cc2Cl)[nH]c(=O)c1C#N,inactive: -0.495%,–
CCN(CC)S(=O)(=O)c1cccc(C(=O)Nc2nc3cc4c(cc3s2)OCCO4)c1,inactive: -9.09%,–
CCCCCCCC[n+]1cccc2c3ccccc3ccc21,inactive: -5.79%,–

Structure (SMILES),"activity change, negative = inhibition",Potency
Clc1ccccc1CN(Cc1ccccc1)c1ncnc2nc[nH]c12,inactive: 1.01%,–
Cc1ccc(CCNC(=O)C2CCN(S(=O)(=O)c3cccc4cccnc34)CC2)cc1,inactive: 0.0832%,–
CCCCCCCCCC[n+]1cccc2c3ccccc3ccc21,inactive: -3.44%,–
COc1ccc(NC(=O)CSc2nc3[nH]c(=O)[nH]c(=O)c3s2)cc1OC,inactive: 3.36%,–
CC1=CCC2C(=O)N(c3ccc(C(=O)Nc4ccccc4Cl)cc3)C(=O)C2C1 (stereo not given),inactive: -1.17%,–
Cc1cccc(C)c1NC(=O)N1CCC(C(=O)c2ccc(F)cc2)CC1,inactive: 0.977%,–
CC(NC(=O)c1cccs1)C(S)c1ccccc1 (stereo not given),inactive: 1.27%,–
CC1=C(OC(=O)c2ccccc2)C(C)(C)C(c2ccccc2)OC1=O (stereo not given),inactive: -1.53%,–
COc1ccc(N(CC(=O)Nc2cc(Cl)ccc2OC)S(=O)(=O)c2c(C)noc2C)cc1,inactive: 1.46%,–
CC1CCCN(S(=O)(=O)c2csc(C(N)=O)c2)C1 (stereo not given),inactive: 0.101%,–
O=C(NCc1ccc(F)cc1)c1ccncc1,inactive: -0.065%,–
Cc1cccc(CSc2nc3ccccc3c(=O)n2C)c1,inactive: -2.78%,–
Cc1ccc(NC(=O)c2ccccc2NS(=O)(=O)c2ccc(F)cc2)cc1S(=O)(=O)N1CCCCC1,inactive: -6.36%,–
O=C(c1ccco1)N1CCN(Cc2csc(-c3ccccc3Cl)n2)CC1,inactive: -0.0961%,–
COC(=O)c1cc(=O)n(-c2c(Cl)cc(C(F)(F)F)cc2Cl)[nH]1,inactive: -1.05%,–
CC(=O)N1CCc2cc(Br)cc(S(=O)(=O)N3CCC(C(=O)O)CC3)c21,inactive: -0.35%,–
C=CCOc1c(Cl)cc(CNc2ccc(N(C)C)cc2)cc1OC,inactive: 1.33%,–
CC(=O)c1c(O)cc(O)c(C(C)=O)c1O,inactive: 2.57%,–
Cc1ccc(C(=O)Nc2nc(-c3ccc(F)cc3)cs2)o1,inactive: -3.58%,–
Cc1ccc(-n2c(Cl)c(Cl)nc(Cl)c2=O)cc1,–,active: 37.9 µM
Cc1ccc(S(=O)(=O)N2CCN(C(=O)CCn3cncn3)CC2)cc1,inactive: 1.9%,–
O=C(OCn1ncc(Cl)c(Cl)c1=O)c1ccccc1Cl,inactive: -5.91%,–
CN(C)S(=O)(=O)c1ccc(N2CCN(S(=O)(=O)c3ccc(F)cc3)CC2)c(Cl)c1,inactive: -5.48%,–
O=C(Nc1nnc(C2CC2)s1)c1ccc(Cl)c(S(=O)(=O)N2CCc3ccccc3C2)c1,inactive: -1.31%,–
CN(c1cccc(Cl)c1)S(=O)(=O)c1cccc(C(=O)NCc2ccncc2)c1,inactive: -0.575%,–
Cc1cc(C)cc(N=C2NC(=O)CS2)c1,inactive: 1.67%,–
Cc1ccc(/C=N/n2c(COc3ccccc3)n[nH]c2=S)s1,inactive: 1.61%,–

Structure (SMILES),"activity change, negative = inhibition",Potency
COC(=O)c1ccc(NC(=O)c2ccccc2)o1,inactive: -1.6%,–
O=C(Nc1ccccc1C(=O)N1CCN(c2cccc(Cl)c2)CC1)C1=CSCCO1,inactive: -1.81%,–
O=C(Nc1ccc2c(c1)CCC2)c1cc(S(=O)(=O)Nc2ccc(F)cc2)c(Cl)cc1Cl,inactive: 1.39%,–
CCOC(=O)C1C(c2cc(OC)c(OC)c(OC)c2)NC(=S)NC1(O)C(F)(F)F (stereo not given),inactive: -2.18%,–
O=C(CCc1ccccc1)N1CCN(Cc2ccc(F)cc2Cl)CC1,inactive: 0.206%,–
O=C1c2cccc3c(O)ccc(c23)C(=O)N1c1ccc(Cl)cc1,inactive: -1.55%,–
COc1ccc(N2CCN(C(=O)[C@H](C)NC(=O)c3ccccc3Cl)CC2)cc1,inactive: -1.19%,–
Cc1ccc(S(=O)(=O)NCCNS(=O)(=O)c2ccc(C)cc2)cc1,inactive: 2.19%,–
O=C(O)c1cccc(NC2=C(Cl)C(=O)c3ccccc3C2=O)c1,inactive: -2.21%,–
CC(=O)c1cccc(NS(=O)(=O)c2cc(-c3cnc(C4CC4)o3)ccc2C)c1,inactive: 1.36%,–
Cc1ccc(F)cc1CNC(=O)c1cc(COc2ccc3ncccc3c2)on1,inactive: -3.93%,–
CC(C)(C)n1ncc2c(=O)n(Cc3ccccc3Br)cnc21,inactive: -3.44%,–
CCOC(=O)c1cc(C(=O)Nc2sc3c(c2C#N)CCCC3)nn1C,inactive: -2.35%,–
CC(C)c1ccc(OCC(=O)Nc2cccc3c2CCCC3)cc1,inactive: 0.431%,–
O=C(NCCc1ccc(Cl)cc1Cl)c1cc([N+](=O)[O-])c[nH]c1=O,inactive: 1.72%,–
O=C(COc1ccc(Cl)cc1)NCc1nnc(SCC(=O)NC2CCCCC2)o1,inactive: 2.48%,–
CN(C)S(=O)(=O)c1cccc(-c2nnc(SCc3ccc4c(c3)OCCO4)o2)c1,inactive: -1.33%,–
Cc1ccc(OCCSc2ncccn2)c(C)c1,inactive: 1.24%,–
CCN(C(=O)CSc1nnc(CNc2cccc(OC)c2)n1C1CCCCC1)C1CCS(=O)(=O)C1 (stereo not given),inactive: 2.48%,–
COc1ccc(-c2csc3ncn(Cc4ccccc4)c(=O)c23)cc1,inactive: 1.6%,–
CCOC(=O)c1c(NC(=O)/C=C/C(=O)O)sc(C)c1-c1ccc(C)c(C)c1,inactive: -0.469%,–
O=C1c2cccc3c([N+](=O)[O-])ccc(c23)C(=O)N1c1ccc(Cl)cn1,inactive: -5.71%,–
COc1ccccc1CNS(=O)(=O)c1cc(-c2cc(C)no2)ccc1C(C)C,inactive: 1.49%,–
O=C(Cn1nc(Cc2cccnc2)c2ccccc2c1=O)NCC1COc2ccccc2O1 (stereo not given),inactive: 2.66%,–
CCOc1cc(NC(=O)C2CC2)c(OCC)cc1NC(=O)c1cccc(F)c1,inactive: 0.0216%,–
O=C(Nc1cccc(F)c1)c1ccc(CSc2ccccc2)o1,inactive: -0.61%,–
O=C1c2ccccc2C(=O)N1CCCCSc1nnnn1-c1ccccc1,inactive: -1.21%,–

Structure (SMILES),"activity change, negative = inhibition",Potency
COCCCn1c(=O)c2sccc2n(Cc2cccc(C)c2)c1=O,inactive: 1.77%,–
O=C(Nc1nc(-c2ccc(S(=O)(=O)N3CCCCCC3)cc2)cs1)c1ccccc1,inactive: -6.65%,–
COCC(C)NC(=O)C1c2ccccc2Oc2ccccc21 (stereo not given),inactive: -1%,–
Cc1ccc(S(=O)(=O)N2CCOCC2)cc1N/N=C(\C#N)c1nc2ccccc2[nH]1,inactive: -0.0733%,–
O=C(Nc1cccc(Cl)c1)Nc1nnc(-c2ccncc2)s1,inactive: 1.03%,–
O=S(=O)(c1cc(C(F)(F)F)ccc1Cl)N1CCN(c2ncnc3ccccc23)CC1,inactive: -3.64%,–
O=C(O)c1ccccc1NS(=O)(=O)c1cccc(-n2sc3ccccc3c2=O)c1,inactive: -2.87%,–
O=c1c(Sc2ccccc2)c(C(F)(F)F)[nH]n1-c1ccccc1,inactive: 2.36%,–
O=c1cc(C(F)(F)F)[nH]c2ccc(OC(F)(F)F)cc12,inactive: 0.68%,–
CCOc1cc(N2CCOCC2)c(OCC)cc1NC(=O)c1cccc(S(=O)(=O)N2CCOCC2)c1,inactive: -2.11%,–
O=C(NCCc1ccccc1)c1cc2ccccc2oc1=O,inactive: -0.429%,–
CCCCCC/C(C)=C1/SC(=S)NC1=O,inactive: 1.84%,–
N#CC1=C(C2CC2)CC(c2ccccc2)C(C#N)=C1N (stereo not given),inactive: 1.75%,–
Nc1ccc(C(=O)NC2CCSc3ccccc32)cc1[N+](=O)[O-] (stereo not given),inactive: -1.23%,–
NC(=O)c1ccc(CN2CCc3ccccc3C2)cc1,inactive: 0.856%,–
Cc1ccc(C(=O)c2c(NC(=O)c3ccccc3)sc(C)c2C)cc1,inactive: -1.36%,–
Cn1nnnc1SCC1=C(C(=O)O)N2C(=O)C(NC(=O)C3CC3c3ccccc3)C2SC1 (stereo not given),inactive: 0.0352%,–
Cc1cc(OCc2cc(C(=O)N(C)C(C)c3ccccn3)no2)cc(C)c1Cl (stereo not given),inactive: 0.705%,–
COc1ccccc1C(=O)Nc1nnc(SCC(=O)NC2CCCC2)s1,inactive: 2.01%,–
Clc1ccc(CSc2nnc(CNc3cccc(Cl)c3)o2)cc1,inactive: 0.688%,–
O=C(Nc1ccccc1)c1ccc(Br)c(S(=O)(=O)Nc2cccnc2)c1,inactive: 0.736%,–
CCOc1ccc(NS(=O)(=O)c2cc(NC(=O)c3cccc(C)c3)ccc2Cl)cc1,inactive: -7.18%,–
O=C(Nc1nc(-c2ccc(Cl)cc2Cl)cs1)c1ccc(OCC2CCCO2)cc1 (stereo not given),inactive: -6.16%,–
COc1ccc2nc(NC(=O)c3ccccc3[N+](=O)[O-])sc2c1,inactive: -1.2%,–
